# Measurements from PubChem BioAssay AID1347073 (National Center for Advancing Translational Sciences (NCATS), 2019).
# In all, about 45,000 compounds went through this assay and about 200 (0.44%) were called active. Roughly 7% stayed inconclusive and do not appear here. Calls come from the whole dose curve; as a rule, active = well fitted activation curve with a large enough effect; inconclusive = small, poorly fitted or top-dose-only effect; inactive = no such curve, though single readings can be large or run the other way. Some of the results follow.
# Assay: qHTS of TDP-43 Inhibitors: NCGC Sytravon Library Screen; note: nearly all actives have a fitted effect of over 55% in size; for growth rescue (activation): 0% is about no effect
# Settings: yeast TDP-43 toxicity rescue, BacTiter-Glo growth, 24 h; series mostly up to 46.1 µM; growth rescue (activation): at the top concentration
# How it was run: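 TDP-43-expressing yeast, pregrown in raffinose, seeded at OD600 0.02 in galactose medium with compound for 24 hr at 30 deg C. Growth read by BacTiter-Glo luminescence, so rescue of toxicity appears as activation.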
# Potency is the fitted concentration of half-maximal effect.
Compound,growth rescue (activation),Potency
COc1ccc(S(=O)(=O)Nc2ccc(NC(C)=O)cc2)cc1Br,inactive: -0.799%,–
COC(=O)c1cc(Sc2cccc(Cl)c2Cl)ccn1,–,active: 12.6 µM
O=C(CNC(=O)c1cccs1)N/N=C/c1ccccc1[N+](=O)[O-],inactive: 4.56%,–
CC(Cn1cncn1)C(=O)N1CCN(S(=O)(=O)c2ccc(Cl)cc2)CC1 (stereo unspecified),inactive: 19.2%,–
CC(C)(C)c1ccc(S(=O)(=O)Nc2ccccn2)cc1,inactive: 4.06%,–
S=C(NCc1ccccc1)Nc1ccc2cn[nH]c2c1,inactive: -9.69%,–
Cc1occc1-c1nnc(SCC(=O)NCCc2ccccc2)o1,inactive: 11.9%,–
CCC[n+]1c2ccccc2cc2ccccc21,inactive: 18%,–
CN(Cc1cc([N+](=O)[O-])ccc1Cl)C(=O)C[n+]1ccccc1,inactive: 4.22%,–
O=C(Nc1ccc(S(=O)(=O)Nc2ccnn2-c2ccccc2)cc1)C(F)(F)F,inactive: -7.45%,–
Cc1ccc(NC(=S)N(CCN2CCCCC2)Cc2ccco2)cc1C,inactive: -8.07%,–
CCOc1ccc2[nH]c(C(=O)N/N=C/c3cc(OC)c(OC)c(OC)c3)cc2c1,inactive: 7.69%,–
CCc1ccc(S(=O)(=O)Nc2cc(SCC(=O)O)c(O)c3ccccc23)cc1,inactive: 8.76%,–
COC(=O)c1ccccc1NC(=O)[C@H]1O[C@@H]2OC(C)(C)O[C@@H]2[C@H]2OC(C)(C)O[C@H]21,inactive: 16.3%,–
O=[N+]([O-])c1ccc(O)c(Nc2c([N+](=O)[O-])ccc3nonc23)c1,inactive: -1.62%,–
CC(=O)Nc1ccc(NC(=O)CCCc2c[nH]c3ccccc23)cc1,inactive: -12.5%,–
COCCCNC(=O)c1sc2ncn(CC(=O)Nc3ccc(C)c(Cl)c3)c(=O)c2c1C,inactive: 11.9%,–
O=C(NCCCN1CCOCC1)c1ccc(CSCc2cccc(Cl)c2)o1,inactive: 4.63%,–
COc1ccc(N(CC(=O)Nc2ccc3c(c2)OCO3)S(=O)(=O)c2ccc(F)cc2)cc1,inactive: -15.2%,–
CCN(CC)CCNC(=O)c1ccc(NC(=O)/C=C/c2cc(OC)c(OC)c(OC)c2)cc1,inactive: 12.3%,–
Cc1ccc(NC(=O)Cc2nnc(SCC(=O)NC3=NCCS3)n2C)cc1,inactive: 12.4%,–
CCCCOc1nc(N2CCOCC2)nc(C)c1[N+](=O)[O-],inactive: 10.2%,–

Compound,growth rescue (activation),Potency
CCN(C(=O)CN1c2ccccc2CC1C)c1c(N)n(Cc2ccccc2)c(=O)[nH]c1=O (stereo unspecified),inactive: -0.713%,–
CCn1cc(CN(C)S(=O)(=O)c2cccc([N+](=O)[O-])c2)cn1,inactive: -1.36%,–
Cc1ccc2nc(/C=C/c3cccc(F)c3)ccc2c1,inactive: 27.2%,–
COCCn1c(=S)[nH]c2sc3c(c2c1=O)CCC(C)C3 (stereo unspecified),inactive: 17.1%,–
CCOc1ccc(N2CC(C(=O)Nc3cc(C)on3)CC2=O)cc1 (stereo unspecified),inactive: -6.19%,–
Cc1ccc(/C=C/C(=O)Nc2ccncc2)o1,inactive: -2.94%,–
COc1ccc(-c2cc(C(F)F)n3ncc(C(=O)n4ccnc4C)c3n2)cc1,inactive: -25.3%,–
COc1ccc(NC(=O)NC2(C(=O)N3CCCCC3)CCCCC2)cc1,inactive: 1.68%,–
COc1ccc(S(=O)(=O)CC(=O)Nc2ccccc2Cl)cc1,inactive: 5.86%,–
COc1cccc(C(O)c2ncc(-c3cccc(F)c3)[nH]2)c1 (stereo unspecified),inactive: 7.05%,–
Cc1cc(N/N=C/c2ccc(O)cc2O)nc(N2CCOCC2)n1,inactive: 6.69%,–
O=c1[nH]c(SCc2nc3ccccc3c(=O)n2-c2ccccc2)nc2ccccc12,inactive: 16.5%,–
Cc1ccc(S(=O)(=O)N2CCN(C(=O)c3ccc4c(c3)OCO4)CC2)cc1,inactive: -2.11%,–
CN(Cc1cn(-c2ccccc2)nc1-c1ccc(Cl)cc1)C(=O)CCC(=O)O,inactive: -0.249%,–
Cc1ccsc1C(=O)N1CCC1(C)C(=O)NS(=O)(=O)c1ccccc1 (stereo unspecified),inactive: -10%,–
CCN(CC)S(=O)(=O)c1ccc(C(=O)N(c2ccccc2)C2C=CS(=O)(=O)C2)cc1 (stereo unspecified),inactive: 7.49%,–
CC1=NC(C)(C)Cc2c(C)cccc21,inactive: 4.46%,–
Cc1ccc(-c2nnc(N3CCOCC3)c3ccccc23)cc1S(=O)(=O)NCC1CCCO1 (stereo unspecified),inactive: -9.67%,–
CC(=O)c1cccc(NC(=O)CCCSc2ccccc2)c1,inactive: 11.9%,–
CN(C(=O)CSc1nnc2n1CCCCC2)C1(C#N)CCCCC1,inactive: 7.87%,–
CC(=O)c1cccc(N(C(=O)Cn2nnc3ccccc32)C(C(=O)NCc2ccccc2)c2ccccn2)c1 (stereo unspecified),inactive: 4.27%,–
Cc1ccccc1N(C(=O)c1snc(C(N)=O)c1N)C(C(=O)NC1CCCC1)c1ccco1 (stereo unspecified),inactive: 3.23%,–

Compound,growth rescue (activation),Potency
CC(=O)Nc1ccc(C(=O)CSc2nnnn2C)cc1,inactive: 0.0723%,–
Cc1ccc(NC(=O)C2CCCN2C(=O)c2cccs2)c(C)c1 (stereo unspecified),inactive: 4.35%,–
NC(CCc1ccccc1)c1csc(NC(=O)Nc2ccccc2Oc2ccccc2)n1 (stereo unspecified),inactive: 12.4%,–
CCc1cccc(CC)c1NC(=O)CCCSc1nc2ccccc2s1,inactive: 11.1%,–
Cc1nn(-c2ccccc2)c2[nH]c(=O)cc(C(F)(F)F)c12,inactive: -84.2%,–
CC1CCN(S(=O)(=O)c2ccc(NC(=O)[C@@H]3CCCC[C@@H]3C(=O)O)cc2)CC1,inactive: 28.8%,–
Cc1cc(C)c(C)c(N=Nc2nc3ccccc3n2C)c1C,inactive: 23.1%,–
COCC(C)NC(=O)c1ccccc1[N+](=O)[O-] (stereo unspecified),inactive: 8.03%,–
CCN(CC)C(=O)Cn1c(=O)n(CCCCCC(=O)NCc2ccc3c(c2)OCO3)c(=O)c2sccc21,inactive: -4.44%,–
Cc1ccc(C2C3=C(CC(C)(C)CC3=O)N=C3c4ccccc4C(=O)C32)cc1 (stereo unspecified),inactive: 5.85%,–
CCN(C(=O)COc1ncnc2ccccc12)C1CCCCC1,inactive: -7.71%,–
COc1ccccc1N(C)S(=O)(=O)c1ccc(C(=O)Nc2nnc(C)s2)cc1,inactive: 11.6%,–
Cc1ccccc1C1C(C#N)=C(N)N(N(C)C)C2=C1C(=O)CC(C)(C)C2 (stereo unspecified),inactive: 11.8%,–
COc1cccc(C(=O)/C=C/Nc2ccc(S(=O)(=O)Nc3nc(C)cc(C)n3)cc2)c1,inactive: -8.23%,–
O=c1c2cc(Br)ccc2[nH]c(=S)n1Cc1ccccc1,inactive: 1.9%,–
Cc1cc(C)n(-c2cc(N3CCN(S(=O)(=O)c4ccc(C)c(C)c4)CC3)ccc2[N+](=O)[O-])n1,inactive: 12.9%,–
Cc1noc(NS(=O)(=O)c2ccc(NC(=O)c3cccc(S(=O)(=O)Nc4ccccc4F)c3)cc2)c1C,inactive: 38.2%,–
Cc1cc(C)c(NC(=O)Cn2c(=O)oc3cc(S(=O)(=O)N4CCCCCC4)ccc32)c(C)c1,inactive: 3.9%,–
Cc1cccc(N(CC(N)=O)C2SC(=O)NC2=O)c1 (stereo unspecified),inactive: 1.69%,–
O=C(OCC(=O)N1c2ccccc2Sc2ccccc21)c1ccc[n+]([O-])c1,inactive: -3.04%,–
CCOC(=O)C1(Cc2ccc(OC)cc2)CCN(C(=O)CN2CCN(CC)CC2)CC1,inactive: 10.7%,–
O=[N+]([O-])c1ccc(O)c(Nc2ncnc3ccccc23)c1,inactive: -1.43%,–

Compound,growth rescue (activation),Potency
CC1(C)Oc2ccc3ccc(=O)oc3c2-c2cn[nH]c21,inactive: 14.9%,–
COCCN(C(=S)Nc1cc(C)cc(C)c1)C(C)c1cccnc1 (stereo unspecified),inactive: 10.6%,–
Cc1ccc(-n2cc(CNCCn3nc(C)cc3C)c(-c3ccc(F)cc3)n2)cc1,inactive: -1.04%,–
CC1CCCCC1NC(=O)CSc1nnc(-c2ccncc2)n1CCCN(C)C (stereo unspecified),inactive: 3.23%,–
CN(C)c1ccc(C(=O)OCC(=O)c2cccs2)cc1,inactive: 11.5%,–
CCC(=O)NC(=S)Nc1ccc(NC(=O)c2ccco2)c(OC)c1,inactive: 23.4%,–
CC1CCc2c(nc3ncnn3c2NCCc2ccccc2F)C1 (stereo unspecified),inactive: 22.7%,–
COc1ccc(OC)c(CN2CCC(C(=O)N3CCOCC3)CC2)c1,inactive: -43.3%,–
COc1cccc(NC(=O)C2(C)CCN2CCc2ccccc2)c1 (stereo unspecified),inactive: 3.47%,–
CN1C(=O)N(C)C2(c3ccccc3)N(C(C)(C)C)C(=O)NC12c1ccccc1 (stereo unspecified),inactive: -8.32%,–
COc1ccc(CCNC(=O)CSc2nc(-c3ccc(OC)c(OC)c3)ccc2C#N)cc1,inactive: -7.88%,–
CCOP(=O)(OCC)C(NC(=O)c1cccs1)c1ccccc1 (stereo unspecified),inactive: 3.15%,–
COc1ccccc1C1C2=C(CCCC2=O)N(CC(=O)O)C2=C1C(=O)CCC2,inactive: 9.01%,–
Cc1ccc2nc3c(cc(C(=O)NCC4CCCO4)c(=N)n3C3CCCC3)c(=O)n2c1 (stereo unspecified),inactive: -34.9%,–
CC(C)c1ccc(N(CC(=O)NC2CCCC2)C(=O)CCC(=O)Nc2nccs2)cc1,inactive: -1.18%,–
O=C(CCCN1C(=O)/C(=C/c2cccc(Br)c2)SC1=S)N1CCOCC1,inactive: -0.385%,–
O=[N+]([O-])c1ccc(S(=O)(=O)NCCc2ccncc2)cc1,inactive: 6.76%,–
CN(C)S(=O)(=O)c1ccc(NC(=O)N2CCN(c3ccccc3)CC2)cc1,inactive: -4.47%,–
O=C(CN1CCC(NC(=O)c2ccco2)CC1)Nc1ccccc1C(F)(F)F,inactive: -10.1%,–
Cn1c(N)c(C(=O)COC(=O)c2ccccc2NCc2ccco2)c(=O)n(C)c1=O,inactive: 4.02%,–
COc1ccc(S(=O)(=O)N(CC(=O)NCc2ccncc2)c2cc(C)cc(C)c2)cc1OC,inactive: -2.42%,–
O=C(/C=C/Nc1ccc(S(=O)(=O)Nc2ncccn2)cc1)c1ccc2ccccc2c1,inactive: -11.6%,–

Compound,growth rescue (activation),Potency
COc1ccc(/C=C/C(=O)Nc2nc(N)n(-c3ccccc3)n2)cc1,inactive: 15%,–
CCCCCCCC(=O)N/N=C/c1ccncc1,inactive: 0.757%,–
O=C(O)c1cc(-c2cccs2)[nH]n1,inactive: 0.0738%,–
CNC(=O)C1CC(=O)N(c2ccc(OCC(=O)N3CCCC3)cc2)C1 (stereo unspecified),inactive: -5.6%,–
COc1ccc(C(=O)NC(=S)Nc2cc3oc4ccccc4c3cc2OC)cc1,inactive: 6.84%,–
O=C(c1ccncc1)N1CCN(c2cccc(C(F)(F)F)c2)CC1,inactive: -21.8%,–
Cc1noc(C)c1CN(C(=S)NC1CC1)c1ccccc1,inactive: -3.97%,–
Cc1c(NC(=O)C2CCN(S(=O)(=O)c3ccccc3)CC2)c(=O)n(-c2ccccc2)n1C,inactive: -8.12%,–
Cc1c(-c2cc(C(=O)O)on2)cnn1C,inactive: -4.72%,–
CCOc1ccc(NC(=O)c2cc(OC)nc3ccccc23)cc1,inactive: 12.4%,–
Cc1ccc(CSCCNC(=O)c2ccc(NS(C)(=O)=O)cc2)cc1,inactive: -2.1%,–
Cc1cc(N(C)/N=C/c2ccccc2)nc(-c2ccccc2O)n1,inactive: 5.73%,–
O=S(=O)(c1cccc(C(F)(F)F)c1)N1CCN(C(=S)NCc2ccco2)CC1,inactive: -5.09%,–
CCCOC(=O)CN1C(=O)c2ccccc2C1=O,inactive: -2.24%,–
COc1cccc(/C=C/C(=O)Nc2cc(S(=O)(=O)N3CCOCC3)ccc2OC)c1,inactive: 6.04%,–
COCCCNCC(O)C(F)(F)F (stereo unspecified),inactive: -7.98%,–
CS(=O)(=O)Nc1ccc(C(=O)NCCSCc2ccccc2)cc1,inactive: 11%,–
COc1ccc(N(C)C(=O)CC2(CC(=O)O)CCCCC2)cc1,inactive: 15.5%,–
